# Results taken from paper PMC4336329 (PLoS ONE, 2015).
# Among all 310,000 compounds or so, about 2,200 (0.71%) showed an effect of 50% or more. The effect is printed as a negative number. This is one part of the list.
# Target: human ether-à-go-go-related gene (hERG) potassium channel (human, UniProt Q12809)
# Test: primary screen, population patch clamp on CHO cells stably expressing hERG
# Chain of human ether-à-go-go-related gene (hERG) potassium channel (Q12809 whole entry, looked up): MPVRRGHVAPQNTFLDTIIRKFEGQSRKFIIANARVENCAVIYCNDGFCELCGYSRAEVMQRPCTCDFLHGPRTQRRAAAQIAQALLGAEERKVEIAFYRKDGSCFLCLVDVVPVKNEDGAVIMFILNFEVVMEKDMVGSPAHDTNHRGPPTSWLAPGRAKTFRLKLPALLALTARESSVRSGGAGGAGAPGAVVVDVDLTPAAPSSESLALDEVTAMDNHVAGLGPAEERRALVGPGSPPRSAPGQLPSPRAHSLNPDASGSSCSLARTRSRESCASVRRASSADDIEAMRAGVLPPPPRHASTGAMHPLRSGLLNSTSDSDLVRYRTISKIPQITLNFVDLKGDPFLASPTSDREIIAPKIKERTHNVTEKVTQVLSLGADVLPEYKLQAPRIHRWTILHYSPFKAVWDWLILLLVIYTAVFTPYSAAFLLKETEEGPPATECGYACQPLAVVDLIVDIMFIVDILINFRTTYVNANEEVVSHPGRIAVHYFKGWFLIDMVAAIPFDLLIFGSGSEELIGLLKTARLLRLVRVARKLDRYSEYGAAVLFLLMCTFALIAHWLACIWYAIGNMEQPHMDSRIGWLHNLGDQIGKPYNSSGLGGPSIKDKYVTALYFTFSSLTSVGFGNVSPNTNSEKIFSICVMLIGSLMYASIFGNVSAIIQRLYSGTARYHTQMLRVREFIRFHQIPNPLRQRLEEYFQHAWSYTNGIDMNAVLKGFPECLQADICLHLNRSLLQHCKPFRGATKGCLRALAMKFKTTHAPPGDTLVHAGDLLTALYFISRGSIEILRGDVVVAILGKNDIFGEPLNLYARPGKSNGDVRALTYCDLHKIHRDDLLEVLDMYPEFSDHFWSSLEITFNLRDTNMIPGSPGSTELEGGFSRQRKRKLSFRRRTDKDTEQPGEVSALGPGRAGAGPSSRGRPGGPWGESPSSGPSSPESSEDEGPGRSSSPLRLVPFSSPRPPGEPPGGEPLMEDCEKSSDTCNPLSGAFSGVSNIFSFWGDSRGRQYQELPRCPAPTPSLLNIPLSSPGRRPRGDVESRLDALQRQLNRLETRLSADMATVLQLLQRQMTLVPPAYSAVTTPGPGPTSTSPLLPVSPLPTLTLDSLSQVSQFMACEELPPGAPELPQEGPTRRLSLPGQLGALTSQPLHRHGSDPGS
row,SMILES,"hERG current change (%, negative = inhibition) at 1uM [%]"
1,O=C(c1ccc([N+](=O)[O-])o1)N1CCN(Cc2ccccc2)CC1,6.21
2,Cc1cc(C)n(C(CC(=O)O)C(=O)O)n1 (centres unmarked),10.4
3,CC(C)NC(=O)COc1coc(CN2CCN(c3ccccc3F)CC2)cc1=O,12.5
4,O=C(NCC1CCCO1)c1cc2n(n1)C(C(F)(F)F)CC(c1ccc(F)cc1)N2 (centres unmarked),-3.61
5,CCc1nnc(NC(=O)CN2C(=O)CCC2=O)s1,11.6
6,O=C(Nc1cccc(C(=O)O)c1)/C(=C\c1ccc2c(c1)OCO2)NC(=O)c1ccccc1Cl,9.69
7,CCCN1C2=NCCN2c2cc(C)c(C)cc21.Cl,-4.41
8,Cc1cccn2c(=O)c3cc(C(=O)N4CCN(C(=O)c5ccco5)CC4)n(C)c3nc12,1.79
9,COc1cc(C(=S)N2CCOCC2)ccc1OC(=O)c1ccccc1[N+](=O)[O-],11.8
10,Fc1ccc(-c2nc3c(-c4ccccc4)cnn3cc2CCN2CCOCC2)cc1,7.29
11,COc1ccc(CCNC(=O)CCc2ccccc2)cc1OC,9.65
12,Cc1ccc(CN2Cc3cccc4c3[C@@H](CC2=O)[C@H](O)[C@H](O)C4)cc1,13.3
13,COc1cccc(N2CCN(C(=O)c3oc4ccccc4c3NC(=O)CCc3cc(OC)no3)CC2)c1,14
14,COc1ccc(C(=O)/C=C/c2ccc(OC)c(O)c2)c(F)c1,-0.356
15,O=C(Nc1ccc(F)cc1)C1CCN(c2nnnn2-c2ccccc2)CC1,-11.5
16,COc1ccc(N2C(=O)CCC(C(=O)NCc3ccccn3)C2c2ccc(OC)c(OC)c2)cc1 (centres unmarked),3.01
17,CCN(CC)CCNC(=O)C(C(=O)c1ccccc1)n1ccccc1=O (centres unmarked),-1.74
18,O=C(Nc1ccc(Cl)c(S(=O)(=O)N2CCOCC2)c1)c1ccccn1,-0.523
19,CCN(CC)S(=O)(=O)c1ccc(-n2cnc3cc(C)c(C)cc32)nc1,14.1
20,O=C(NC1CCCCC1)C(c1cccs1)N(C(=O)C(F)(F)F)c1ccccc1 (centres unmarked),1.09
21,COc1ccccc1C(O)P(=O)(OC(C)C)c1ccc(N(C)C)cc1 (centres unmarked),-6.33
22,Cc1csc(NC(C)c2nc3cc(C(F)(F)F)ccc3n2CCOCCO)n1 (centres unmarked),-13.9
23,COc1cc(NC(=O)[C@H]2CCCN2S(=O)(=O)c2cccc3cccnc23)cc(OC)c1OC,8.67
